Measured values taken from the supplement of paper PMC6089552.
The whole screen tested about 3,200 compounds, of which about 300 (9.4%) showed activity. The list shows a part of the results, in another mix than the full data.

Test system: A673/TR/shEF
Experiment: cell viability (LOESS-normalised, relative to median of negative controls) (log2 ratio); higher = more viable cells (less compound effect), active = hit call of the paper (over 3 MAD below the median)
Conditions: treatment time: 72 h
Method in brief: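 For three days, A673/TR/shEF Ewing sarcoma cells in 384-well plates (1,500 per well) were treated with library compounds at two or more concentrations or with DMSO controls, after doxycycline had been added or withheld 24 h beforehand to induce EWS-FLI1 shRNA knockdown. Viability was read by CellTiter-Glo luminescence on an Envision reader. The data were LOESS-corrected per plate, divided by the median of negative controls and log2-transformed.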

[1] = 0.25 µM, library screen: screen1, EWS-FLI1 expression: high (no doxycycline)
[2] = 0.25 µM, library screen: screen1, EWS-FLI1 expression: low (doxycycline-induced shRNA knockdown)
[3] = 2.5 µM, library screen: screen1, EWS-FLI1 expression: high (no doxycycline)
[4] = 2.5 µM, library screen: screen1, EWS-FLI1 expression: low (doxycycline-induced shRNA knockdown)
[5] = 0.103 µM, library screen: screen3, EWS-FLI1 expression: high (no doxycycline)
[6] = 0.103 µM, library screen: screen3, EWS-FLI1 expression: low (doxycycline-induced shRNA knockdown)
[7] = 0.25 µM, library screen: screen2, EWS-FLI1 expression: high (no doxycycline)
[8] = 0.25 µM, library screen: screen2, EWS-FLI1 expression: low (doxycycline-induced shRNA knockdown)
[9] = 0.308 µM, library screen: screen3, EWS-FLI1 expression: high (no doxycycline)
[10] = 0.308 µM, library screen: screen3, EWS-FLI1 expression: low (doxycycline-induced shRNA knockdown)
[11] = 0.926 µM, library screen: screen3, EWS-FLI1 expression: high (no doxycycline)
[12] = 0.926 µM, library screen: screen3, EWS-FLI1 expression: low (doxycycline-induced shRNA knockdown)
[13] = 2.5 µM, library screen: screen2, EWS-FLI1 expression: high (no doxycycline)
[14] = 2.5 µM, library screen: screen2, EWS-FLI1 expression: low (doxycycline-induced shRNA knockdown)
[15] = 2.8 µM, library screen: screen3, EWS-FLI1 expression: high (no doxycycline)
[16] = 2.8 µM, library screen: screen3, EWS-FLI1 expression: low (doxycycline-induced shRNA knockdown)
[17] = 8.3 µM, library screen: screen3, EWS-FLI1 expression: high (no doxycycline)
[18] = 8.3 µM, library screen: screen3, EWS-FLI1 expression: low (doxycycline-induced shRNA knockdown)
[19] = 25 µM, library screen: screen3, EWS-FLI1 expression: high (no doxycycline)
[20] = 25 µM, library screen: screen3, EWS-FLI1 expression: low (doxycycline-induced shRNA knockdown)
[21] = 25 µM, library screen: screen2, EWS-FLI1 expression: high (no doxycycline)
[22] = 25 µM, library screen: screen2, EWS-FLI1 expression: low (doxycycline-induced shRNA knockdown)

Measured: cell viability (log2)

OC[C@@H](O)C(O)[C@@H](O)CO (stereo partly specified)
inactive: [1] 0.0295 | [2] -0.0327 | [3] 0.0906 | [4] 0.0422

CC(=O)[C@H]1CC[C@H]2[C@@H]3CCC4=CC(=O)CC[C@]4(C)[C@H]3CC[C@]12C
inactive: [5] 0.161 | [6] 0.011 | [1] 0.0842 | [2] 0.142 | [7] 0.133 | [8] 0.044 | [9] 0.16 | [10] 0.0729 | [11] 0.13 | [12] 0.0926 | [3] 0.103 | [4] 0.115 | [13] 0.0285 | [14] 0.0654 | [15] 0.163 | [16] 0.0887 | [17] 0.106 | [18] 0.113 | [19] 0.0847 | [20] 0.0844

CC(=O)N1CCN(c2ccc(OC[C@H]3CO[C@](Cn4ccnc4)(c4ccc(Cl)cc4Cl)O3)cc2)CC1
inactive: [5] 0.125 | [6] 0.0515 | [1] 0.0526 | [2] -0.0485 | [7] 0.189 | [8] 0.109 | [9] 0.078 | [10] 0.064 | [11] -0.0249 | [12] 0.0585 | [3] 0.211 | [4] 0.0029 | [13] -0.00521 | [14] 0.0303 | [15] -0.0229 | [16] 0.0304 | [17] 0.0791 | [18] 0.02 | [19] 0.147 | [20] -0.00206

COc1ccc2c(c1)CCC1=CC(=O)CCC12C (stereo unspecified)
inactive: [1] 0.119 | [2] 0.144 | [3] 0.0987 | [4] 0.126

CN(C)CC/C=C1/c2ccccc2Sc2ccc(Cl)cc21
inactive: [5] 0.104 | [6] 0.0714 | [1] 0.112 | [2] 0.137 | [7] 0.198 | [8] 0.0901 | [9] 0.123 | [10] 0.0894 | [11] 0.124 | [12] 0.09 | [3] 0.0435 | [4] 0.171 | [13] 0.097 | [14] 0.0847 | [15] 0.161 | [16] 0.0902 | [17] 0.0997 | [18] 0.106 | [19] 0.0217 | [20] 0.0665

CN(C)CCOC(c1ccccc1)c1ccccc1
inactive: [5] 0.0458 | [6] 0.0854 | [1] 0.106 | [2] 0.0755 | [7] 0.0714 | [8] -0.00862 | [9] 0.116 | [10] 0.0863 | [11] 0.0978 | [12] 0.0963 | [3] 0.172 | [4] 0.17 | [13] 0.0587 | [14] 0.000637 | [15] 0.0751 | [16] 0.089 | [17] 0.105 | [18] 0.11 | [19] 0.199 | [20] 0.14

COc1cc(OC)cc(OC)c1
inactive: [1] 0.193 | [2] 0.141 | [3] 0.207 | [4] 0.0756

COc1ccc(C2C3=C(CC(C)(C)CC3=O)OC3=C2C(=O)CC(C)(C)C3)cc1[N+](=O)[O-]
inactive: [1] 0.06 | [2] 0.0112 | [3] 0.134 | [4] -0.00188

Cc1cc(=O)oc2cc(O)c(O)cc12
inactive: [1] -0.0238 | [2] 0.0536 | [3] 0.00784 | [4] 0.0751

N[C@@H](Cc1cc(I)c(Oc2cc(I)c(O)c(I)c2)c(I)c1)C(=O)O
inactive: [1] 0.115 | [2] 0.0893 | [3] 0.154 | [4] 0.312

CSc1nc(N)c2ncn(C3OC(COP(=O)(O)OP(=O)(O)O)C(O)C3O)c2n1 (stereo unspecified)
inactive: [7] 0.0889 | [8] 0.0973 | [13] 0.157 | [14] 0.0918

CN1C[C@H](O)[C@@H](O)[C@H](O)[C@H]1CO
inactive: [7] -0.0352 | [8] 0.0677 | [13] 0.0611 | [14] 0.0287

NC(N)=NCCSSCCN=C(N)N
inactive: [7] 0.208 | [8] 0.0937 | [13] 0.0577 | [14] 0.063

O=C1C[C@@H](c2ccc(O)cc2)Oc2cc(O)ccc21
inactive: [1] 0.0381 | [2] 0.0982 | [3] 0.158 | [4] 0.0988

COc1cc(O)c2c(=O)cc(-c3ccc(OC)c(O)c3)oc2c1
inactive: [1] 0.0474 | [2] 0.00819 | [3] 0.132 | [4] 0.0369

Clc1ccc(CSC(Cn2ccnc2)c2ccc(Cl)cc2Cl)cc1 (stereo unspecified)
inactive: [1] 0.0547 | [2] -0.0713 | [3] 0.0724 | [4] -0.143

Nc1ncnc2c1ncn2[C@@H]1O[C@H](CO)[C@@H](O)[C@H]1O
active: [7] -0.195

COc1cc(CN2CCN(Cc3ccc([N+](=O)[O-])cc3)CC2)c([N+](=O)[O-])cc1OC
inactive: [1] 0.132 | [2] 0.09 | [3] 0.0515 | [4] 0.104

C[n+]1cc2c3c(ccc2c2ccc4cc5c(cc4c21)OCO5)OCO3
active: [3] -0.232 | [13] -0.101 | [21] -4.23 | [22] -4.28

Nc1ccn([C@@H]2O[C@H](CO)[C@@H](O)C2(F)F)c(=O)n1
active: [5] -1.19 | [6] -0.155 | [9] -1.43 | [10] -0.392 | [11] -1.81 | [12] -0.473 | [15] -1.98 | [16] -0.588 | [17] -2.08 | [18] -0.562 | [19] -2.16 | [20] -0.572

COc1ccccc1N1CCN(CCN(C(=O)C2CCCCC2)c2ccccn2)CC1
inactive: [7] 0.196 | [8] 0.0284 | [13] 0.133 | [14] 0.0787

CO[C@H]1C[C@@H]2CC[C@@H](C)[C@@](O)(O2)C(=O)C(=O)N2CCCC[C@H]2C(=O)O[C@H]([C@H](C)C[C@@H]2CC[C@@H](OCCO)[C@H](OC)C2)CC(=O)[C@H](C)/C=C(\C)[C@@H](O)[C@@H](OC)C(=O)[C@H](C)C[C@H](C)/C=C/C=C/C=C/1C
active: [5] -0.823 | [6] -0.667 | [9] -0.931 | [10] -0.779 | [11] -0.921 | [12] -0.761 | [15] -0.899 | [16] -0.779 | [17] -1.09 | [18] -0.731 | [19] -0.943 | [20] -0.733

CC(=O)O[C@@]12CO[C@@H]1C[C@H](O)[C@@]1(C)C(=O)[C@H](O)C3=C(C)[C@@H](OC(=O)[C@H](O)[C@@H](NC(=O)OC(C)(C)C)c4ccccc4)C[C@@](O)([C@@H](OC(=O)c4ccccc4)[C@H]21)C3(C)C
active: [5] -2.68 | [6] -0.934 | [9] -2.8 | [10] -1.01 | [11] -2.92 | [12] -1.04 | [15] -2.83 | [16] -1.04 | [17] -2.98 | [18] -1.06 | [19] -2.84 | [20] -1.01

COc1ccc(/C=C/C(=O)O)cc1OC
inactive: [1] -0.00585 | [2] -0.00138 | [3] 0.164 | [4] 0.0104

N=C(N)c1ccc(OCCCCCOc2ccc(C(=N)N)cc2)cc1
inactive: [1] 0.114 | [2] 0.194 | [7] 0.147 | [8] 0.137 | [3] 0.161 | [4] 0.127 | [13] 0.142 | [14] 0.0964

O=C(OC[C@H]1O[C@@H](OC(=O)c2cc(O)c(O)c(OC(=O)c3cc(O)c(O)c(O)c3)c2)[C@H](OC(=O)c2cc(O)c(O)c(OC(=O)c3cc(O)c(O)c(O)c3)c2)[C@@H](OC(=O)c2cc(O)c(O)c(OC(=O)c3cc(O)c(O)c(O)c3)c2)[C@@H]1OC(=O)c1cc(O)c(O)c(OC(=O)c2cc(O)c(O)c(O)c2)c1)c1cc(O)c(O)c(OC(=O)c2cc(O)c(O)c(O)c2)c1
inactive: [1] 0.0136 | [2] 0.0976 | [3] 0.0623 | [4] 0.298

COC(=O)Nc1nc2ccc(C(=O)c3ccccc3)cc2[nH]1
active: [3] -1.65 | [4] -0.988 | [13] -2.05 | [14] -0.641 | [21] -3.34 | [22] -1

O=c1cc(-c2cccc3c2Sc2ccccc2S3)oc(N2CCOCC2)c1
inactive: [5] 0.00625 | [6] 0.00883 | [9] -0.0309 | [10] 0.0146 | [11] 0.0133 | [12] 0.00404 | [15] 0.0162 | [16] 0.0289 | [17] -0.0501 | [18] 0.00607 | [19] 0.0363 | [20] -0.0432

Fc1ccc(C(c2ccc(F)cc2)N2CCN(C/C=C/c3ccccc3)CC2)cc1
inactive: [1] 0.0134 | [2] 0.0639 | [7] 0.16 | [8] 0.105 | [3] 0.177 | [4] 0.197 | [13] 0.161 | [14] 0.0855

CN1CCc2c(c3ccccc3n2Cc2ccccc2)C1
inactive: [1] 0.116 | [2] 0.0274 | [3] 0.196 | [4] 0.0416

NC(=NCc1ccccc1)NC(=O)c1nc(Cl)c(N)nc1N
inactive: [7] 0.171 | [8] 0.0781 | [13] 0.0974 | [14] -0.0222

CN(C)C(=O)/C(=C\c1cccc(Br)c1)NC(=O)c1ccccc1
inactive: [1] 0.0622 | [2] 0.0915 | [3] 0.179 | [4] 0.181
